Test results reported in patent US9439918B2 (priority 2008, dated 2016).

System: S. pneumoniae (ATCC 49619)
Experiment: Time kill curve
Format: cell-based
Details: tested at 2×, 4×, 8×MIC

## CC[C@H]1OC(=O)[C@@](C)(F)C(=O)[C@H](C)[C@@H](OC2OC(C)CC(N(C)C)C2O)[C@@](C)(OC)C[C@@H](C)C(=O)[C@H](C)[C@H]2N(CCCCn3cc(-c4cccc(N)c4)nn3)C(=O)O[C@]12C (stereo partly shown) [CEM-101, 11-N-4-(3-aminophenyl)-[1,2,3]triazol-1-yl]-butyl-5-desosaminyl-3-oxo-2-fluoro-erythronolide A,-11,12-cyclic carbamate]
  Antimicrobial activity (time kill curve): rapid bactericidal activity
